From the supplement of paper PMC3334620
Over roughly 33,000 sequences, “E-score (-0.5 to 0.5)” has its median near -0.012; the highest 2% begin near 0.29. The list shows a part of the results.

Target: T1, Ybr033w (UniProt P38073)
T1 sequence: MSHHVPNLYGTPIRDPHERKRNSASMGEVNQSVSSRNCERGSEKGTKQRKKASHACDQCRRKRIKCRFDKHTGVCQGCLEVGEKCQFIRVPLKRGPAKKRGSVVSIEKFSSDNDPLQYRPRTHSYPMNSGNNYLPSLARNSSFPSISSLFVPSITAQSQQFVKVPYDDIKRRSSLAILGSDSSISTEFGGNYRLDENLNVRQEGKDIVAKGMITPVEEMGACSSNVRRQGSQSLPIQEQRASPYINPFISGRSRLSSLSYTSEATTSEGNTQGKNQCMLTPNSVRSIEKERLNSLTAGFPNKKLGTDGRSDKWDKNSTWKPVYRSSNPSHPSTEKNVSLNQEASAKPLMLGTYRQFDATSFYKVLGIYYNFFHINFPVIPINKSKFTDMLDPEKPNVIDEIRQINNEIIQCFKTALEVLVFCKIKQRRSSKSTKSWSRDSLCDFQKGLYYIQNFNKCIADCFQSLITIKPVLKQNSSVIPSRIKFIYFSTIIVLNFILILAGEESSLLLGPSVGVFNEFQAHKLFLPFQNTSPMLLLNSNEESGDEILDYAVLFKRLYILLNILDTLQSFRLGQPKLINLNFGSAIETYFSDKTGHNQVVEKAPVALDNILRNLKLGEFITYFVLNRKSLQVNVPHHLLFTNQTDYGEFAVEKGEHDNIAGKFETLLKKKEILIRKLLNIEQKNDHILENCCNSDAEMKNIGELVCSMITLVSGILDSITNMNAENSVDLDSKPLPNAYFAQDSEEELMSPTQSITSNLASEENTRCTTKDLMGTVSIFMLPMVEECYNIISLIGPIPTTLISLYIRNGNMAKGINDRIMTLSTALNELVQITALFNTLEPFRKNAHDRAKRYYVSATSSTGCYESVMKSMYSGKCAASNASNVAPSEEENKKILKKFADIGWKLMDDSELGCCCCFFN
Experiment: PBM E-score (8-mer binding enrichment) (E-score (-0.5 to 0.5)); higher = stronger / more preferred TF binding; most listed sequences are background and not binding sites
Conditions: protein concentration: 200 nM; construct: GST-full length
Method in brief: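 E-scores (a modified Wilcoxon-Mann-Whitney statistic) were assigned by the Universal PBM Analysis Suite to every ungapped eight-base word pooled with its reverse complement. The input came from universal all-10-mer Agilent arrays made double-stranded by primer extension and probed with GST-tagged yeast transcription factors at about 100-200 nM. Fluorescent anti-GST detected bound protein, and masliner normalised the scans.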

Sequence | PBM E-score
AACTGGAC | -0.143
CGATTCAC | -0.00698
AAGAAGCG | -0.145
AATTATCA | 0.324
AGGACACG | -0.223
AAAGAACC | 0.108
AAAGGCCT | -0.287
GCAGCGTA | -0.106
AACTTTCA | 0.0459
GCTCTCCA | -0.268
CTGACCGA | -0.119
CTAGTTCA | 0.169
AGATCGGC | -0.189
AGGGATAG | -0.172
CTTTTTGC | 0.0416
AGATGTAG | 0.0547
TACTGATA | 0.15
AGTCACAC | 0.0366
GCGCGTAA | 0.0616
ATTTAGAC | 0.131
TCATTCGA | 0.168
TAGATAGA | 0.0987
AAACCGGG | -0.042
ATTGCAAC | 0.0245
CCAACGCC | -0.225

Sequence | PBM E-score
CAAGCTGG | -0.248
AGGTGCGA | -0.198
GCTGCTGA | -0.0546
AGAAAGAA | 0.13
CTGGAAGA | 0.189
AACTGCGA | -0.0294
AACCCCAG | -0.151
AACCCCCG | -0.382
ACGACGCC | -0.268
ATGCGAGA | -0.0599
CCGCTGCC | -0.418
CAAATACC | 0.112
CACCGTGG | -0.311
CAGTCCGC | -0.135
GGCTGCGA | -0.136
AGCTAAAG | 0.0298
CATCAAAG | 0.0135
ACTACGTG | -0.197
AAACTATA | 0.17
AAACCTTA | 0.157
CGTAATTA | 0.29
GGAGTCGA | -0.0249
CGTACGAC | -0.204
CAGATCAC | -0.00558
CGATGGAG | -0.134

Sequence | PBM E-score
ACTGGGAT | 0.0931
ACATATAC | 0.112
CGGCAGGC | -0.339
AGGCAAGG | -0.21
ATGGACGG | 0.0966
CGGCGGGC | -0.127
ACGCTGGG | -0.23
GGTAGTTA | 0.0571
GTGATTCA | -0.00395
ATGGTGGC | -0.291
GAGTCATA | 0.037
ATATTTAC | 0.215
AAAAGTGA | 0.199
GGAACGGA | -0.00114
AGTAACAA | 0.17
CGCCTACA | -0.0696
CGCCTAGC | -0.194
GCACGCAA | -0.144
GGAATATA | 0.291
CTACAGAG | -0.014
TATGTAGA | 0.0679
AGATGAGC | -0.0227
CATGCAAG | -0.0221
CCGAGCTA | -0.204
CACGAGGA | -0.137

Sequence | PBM E-score
GAGATCTC | -0.0343
ATCCTGTA | 0.192
AGCAAATG | 0.105
TAGAGACA | -0.043
GGCATTAC | -0.0932
CGCGTCAA | -0.0732
ATCGTGAG | -0.135
AGCCAAAC | 0.154
CGAATCTC | -0.0445
ATACTAAA | 0.284
CAATCGGG | -0.0536
CTGCGTCC | -0.22
GGCTTTAA | 0.0415
ACAGTCCC | -0.12
TAGGGGAA | -0.188
GCATGCAC | -0.144
CCGAATCA | -0.0543
GCCATTAA | 0.137
GACTCCCA | -0.305
GCGTTATA | 0.0389
CATGGGTC | -0.199
AGCTCTAG | -0.157
GAATCAAC | 0.257
GACACGAA | -0.0273
GGGTCGTA | -0.177

Sequence | PBM E-score
CACATCAA | 0.127
TACGTGCA | -0.102
AGAAGGAT | -0.0293
ACCCCATA | -0.149
CCTTGAAG | -0.153
AGTTCACA | 0.0967
AGGTTAGA | -0.0601
TCAATCAA | 0.217
CGTATATC | -0.0176
ACCGCAAC | 0.0881
ATCCCCCC | -0.373
CTCAGGCC | -0.28
CGTGCCTA | -0.107
ACTCCGCT | -0.0751
AGTACTCG | 0.198
CTTTTCCA | -0.0875
CGCCAGGC | -0.239
AAACGGCT | -0.0555
AAGTGAAG | 0.0414
ATGGAGTG | -0.184
ACTATCAT | 0.242
AAAACACC | 0.0357
ACGTAGCG | -0.171
CTTCAGCC | -0.13
ACGACAAA | 0.283

Sequence | PBM E-score
AGCAGGCA | -0.12
TACCACAA | 0.195
TCCTAACA | 0.0774
AGTCGATC | -0.166
AATTGGTA | 0.205
GCTGTCTA | -0.0891
CGATTCAG | 0.0559
CCATTAGC | -0.0535
AAGAGTCT | -0.164
CAAGGTCG | -0.0398
CGGGCCTC | -0.172
CACTGAAG | 0.0968
CGAGTTAA | 0.21
CAACGGAC | -0.123
ATGGGCCC | -0.38
AGGGCGTC | -0.0512
CTTCGTGC | -0.00189
TCCCGACA | -0.0366
GTCCTCTA | -0.103
AAAGAATA | 0.256
AATAAGAA | 0.193
AGACTTCA | -0.0839
ACGCCAGC | -0.189
GGCGACTA | -0.138
CTCAATCC | 0.105

Sequence | PBM E-score
TAGCCTCA | 0.0172
CTCCCCTA | -0.189
ATTTTACA | 0.0461
CGCCGCAG | -0.235
CGCTTGCA | 0.152
AGGCTCGC | -0.232
AACGTAAT | 0.21
CGAAGGAA | -0.14
ATAAGGGA | -0.0166
ATCGGAGC | -0.107
ATGTTAAT | 0.152
GAGGGACA | -0.261
CCATTGAC | 0.0236
AGATTAAA | 0.295
CCAGCCGC | -0.116
ATTCTAAA | 0.227
AGAGTACG | -0.0594
TCCGTTCA | -0.00203
GTAGTATA | 0.168
AAATGGCA | 0.101
AAGGCTTA | -0.0575
CATGCTCG | -0.13
